Source: the supplement of paper PMC3334620
Whole data set: some 33,000 sequences, median “E-score (-0.5 to 0.5)” near -0.012, cut for the highest 2% near 0.27. Some of the results follow.

Each sequence was assayed against T1, Vhr1 (UniProt P40522) (assay: PBM E-score (8-mer binding enrichment) (E-score (-0.5 to 0.5)); higher = stronger / more preferred TF binding; most listed sequences are background and not binding sites). Conditions: protein concentration: 200 nM; construct: GST-full length.
T1 sequence: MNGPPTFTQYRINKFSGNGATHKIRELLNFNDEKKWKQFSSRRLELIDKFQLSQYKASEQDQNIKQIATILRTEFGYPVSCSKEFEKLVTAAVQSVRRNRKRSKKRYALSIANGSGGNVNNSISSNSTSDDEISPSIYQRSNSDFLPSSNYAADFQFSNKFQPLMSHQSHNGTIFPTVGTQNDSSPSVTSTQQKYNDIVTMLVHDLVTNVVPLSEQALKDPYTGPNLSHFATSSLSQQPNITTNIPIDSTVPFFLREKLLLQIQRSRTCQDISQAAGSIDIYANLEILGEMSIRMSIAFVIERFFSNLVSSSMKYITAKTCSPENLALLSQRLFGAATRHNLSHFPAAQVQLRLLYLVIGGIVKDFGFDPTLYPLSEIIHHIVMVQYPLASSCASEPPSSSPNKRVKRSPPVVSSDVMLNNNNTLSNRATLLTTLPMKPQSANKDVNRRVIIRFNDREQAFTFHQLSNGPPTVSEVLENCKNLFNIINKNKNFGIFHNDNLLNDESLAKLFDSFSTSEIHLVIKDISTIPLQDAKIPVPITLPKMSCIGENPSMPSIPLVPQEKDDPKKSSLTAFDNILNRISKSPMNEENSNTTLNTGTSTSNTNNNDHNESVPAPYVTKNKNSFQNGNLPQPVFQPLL
Method: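 Universal 'all 10-mer' protein binding microarrays (Agilent AMADID 015681) probed with GST-tagged S. cerevisiae TFs (full-length or DBD) made by in vitro transcription/translation (PURExpress), about 100-200 nM. Bound TF was detected with fluorescent anti-GST. Each ungapped 8-mer (which stands for itself and its reverse complement) is scored by the PBM enrichment score (E-score), a modified Wilcoxon-Mann-Whitney statistic from -0.5 to +0.5, computed with the Universal PBM Analysis Suite. Scale: above 0.35 generally sequence-specific binding.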

| Sequence | PBM E-score |
| --- | --- |
| CTAGGAAA | -0.262 |
| CGTCACCC | -0.047 |
| CATAGCGA | -0.0578 |
| GTCCCTGA | -0.0842 |
| AGGTGGGG | 0.0416 |
| CACAGTTC | 0.0452 |
| CACTTTCG | -0.142 |
| AAAATGGC | -0.228 |
| GAGATGGC | -0.0254 |
| GTCCAGAA | -0.0907 |
| CAAGACCG | -0.221 |
| ACTGCCTC | -0.108 |
| CATGAGAC | 0.274 |
| CTCTGAAG | -0.13 |
| ATCATCCA | 0.262 |
| TGGCCTAA | -0.234 |
| AACCGTCT | -0.076 |
| TGCATCAA | 0.153 |
| ATATAAAG | -0.196 |
| GGCGCATA | -0.0171 |
| CCCACTAG | -0.232 |
| GTGAGCTA | 0.126 |

| Sequence | PBM E-score |
| --- | --- |
| CACATCGC | 0.259 |
| AAAACGTC | -0.273 |
| AAAGCCAC | -0.0731 |
| AGGCCCGC | 0.0192 |
| GTCAAAAC | 0.0706 |
| GATAGTAA | 0.0876 |
| TATGTACA | 0.0596 |
| AACCATTC | -0.0569 |
| CAATGCCA | -0.00204 |
| CGTTCTTA | -0.12 |
| ACATCGCC | 0.153 |
| CGCCATAC | 0.0581 |
| CCGAAGTA | 0.0154 |
| AGTTTTAT | -0.14 |
| TAGAAGAA | -0.198 |
| AATCAACT | -0.00176 |
| CAAATAAC | 0.0847 |
| TGACTGCA | 0.266 |
| CTGGAGAC | 0.0265 |
| AAAGGACG | -0.16 |
| AAAAATTG | -0.136 |
| TGGCATAA | 0.209 |

| Sequence | PBM E-score |
| --- | --- |
| CGACATAG | -0.0719 |
| TCCTGCAA | -0.21 |
| CGTACGCA | -0.0167 |
| GGGGCGAC | 0.144 |
| GGTTTCGA | -0.06 |
| ATGGGGAG | -0.0565 |
| TATCTAAA | 0.119 |
| AGATTGTA | 0.0192 |
| AAAAAGCC | -0.0917 |
| GATCGCGA | 0.189 |
| CTGTACAA | -0.151 |
| TACGGAGA | 0.00353 |
| TGACGAAA | -0.0902 |
| CCGGTAAG | -0.0459 |
| GCGCTCTA | -0.0208 |
| TAACGCGA | -0.0706 |
| AGTAATAG | 0.0982 |
| CGATGGCC | -0.165 |
| CTCGACTA | 0.163 |
| AGGGGCCA | -0.0724 |
| CGTAAGCC | -0.173 |
| GTAGGTGA | 0.0963 |

| Sequence | PBM E-score |
| --- | --- |
| TCAGATGA | 0.221 |
| ATCTGTAG | 0.0268 |
| TACACGGA | 0.0609 |
| GCCACAGC | 0.0405 |
| AACTCAAA | 0.108 |
| AAGCGACG | -0.172 |
| CAGGGCAC | 0.0483 |
| GCAGTACC | 0.0122 |
| GCACACAA | 0.0772 |
| AAGTGTCA | -0.0801 |
| GCTCGTAA | -0.0526 |
| GCCACTAA | -0.0709 |
| ACTCGGCA | 0.143 |
| ATGATACC | 0.124 |
| AACGCTGC | -0.255 |
| CAAATGTG | 0.166 |
| AGGGAGAT | -0.115 |
| AAGTGAAC | -0.149 |
| ACAAAAGC | -0.131 |
| GTGCTCCA | -0.0978 |
